In PMC11783601, “Analogue-Sensitive Inhibition of Histone Demethylases Uncovers Member-Specific Function in Ribosomal Protein Synthesis” (Journal of the American Chemical Society, 2025):
Values joined by “and” are separate entries in the source; they are usually repeats but may differ in a detail not shown here. Equal entries are not always repeated.

Target: T1, KDM4A F185A (asKDM4A) in HEK293T cells (Homo sapiens, UniProt O75164, F185A)
T1 construct: we generated the F185A mutation in full-length KDM4A carrying all of the functional domains; host or cells: HEK293T
T1 sequence (O75164 1-1064 F185A): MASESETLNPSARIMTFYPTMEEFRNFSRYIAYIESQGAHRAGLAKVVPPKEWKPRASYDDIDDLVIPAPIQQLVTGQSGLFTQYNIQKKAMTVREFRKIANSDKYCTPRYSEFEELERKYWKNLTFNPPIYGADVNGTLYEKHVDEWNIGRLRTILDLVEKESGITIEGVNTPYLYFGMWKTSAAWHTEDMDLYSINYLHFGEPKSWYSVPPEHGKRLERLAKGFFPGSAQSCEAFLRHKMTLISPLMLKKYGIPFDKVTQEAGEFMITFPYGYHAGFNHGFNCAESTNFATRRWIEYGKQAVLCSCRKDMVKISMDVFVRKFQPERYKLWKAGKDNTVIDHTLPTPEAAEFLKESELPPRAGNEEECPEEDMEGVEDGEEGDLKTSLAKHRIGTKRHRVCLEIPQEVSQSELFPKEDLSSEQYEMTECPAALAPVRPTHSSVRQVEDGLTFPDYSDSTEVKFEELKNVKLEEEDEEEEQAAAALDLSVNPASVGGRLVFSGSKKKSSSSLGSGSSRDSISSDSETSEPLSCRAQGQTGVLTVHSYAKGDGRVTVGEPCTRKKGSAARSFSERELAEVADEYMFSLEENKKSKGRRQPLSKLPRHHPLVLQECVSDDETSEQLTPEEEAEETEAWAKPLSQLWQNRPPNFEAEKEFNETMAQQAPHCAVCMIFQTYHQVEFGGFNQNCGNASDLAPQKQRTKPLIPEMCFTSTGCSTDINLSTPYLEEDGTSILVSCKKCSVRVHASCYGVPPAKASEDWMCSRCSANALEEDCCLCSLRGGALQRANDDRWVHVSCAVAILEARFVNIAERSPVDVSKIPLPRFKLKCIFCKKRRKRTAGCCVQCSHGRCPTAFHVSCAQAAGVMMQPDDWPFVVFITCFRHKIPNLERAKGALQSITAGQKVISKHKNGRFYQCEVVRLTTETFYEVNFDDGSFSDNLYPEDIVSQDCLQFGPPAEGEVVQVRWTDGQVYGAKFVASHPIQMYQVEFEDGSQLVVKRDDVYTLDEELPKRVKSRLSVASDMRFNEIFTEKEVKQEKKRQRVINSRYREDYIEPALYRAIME
Assay: Histone extraction, digestion and tandem mass spectrometry (relative abundance of histone modifications)
Assay type: cell-based
Experimental: HEK293T cells were transiently transfected with asKDM4A and treated with varying concentrations of 6A or 6B. […] To further confirm the activity of the enzyme–inhibitor pair, we performed tandem mass spectrometry of tryptic histones isolated from HEK293T cells expressing asKDM4A in the presence or absence of 100 μM 6A. […]
22. Histone extraction, digestion and tandem mass spectrometry
HEK 293-T cells (ATCC CRL-1573) were plated into 6-well plates (Corning) in DMEM (Corning) supplemented with 10% FBS (Corning) and 1X Antibiotic/Antimycin
(Penicillin/Streptomycin/Fungiozone) (Cytiva HyClone) in an incubator held at 37 °C with 5%
CO2. At 75% confluency, cells were transfected with 2.5 µg KDM4A F185A or Empty Vector with 5µg Thermo Turbofect (FERR0531). After 4 hours, the media was washed and 200 µM of 6A or equivalent volume of DMSO was added and left to incubate at 37 °C for 24 hours. Cells were then washed with 1X PBS (Corning) followed by trypsinization (Gibco TrypLE™ Express Enzyme). Collected cells were centrifuged at 3000xg for 3 minutes, followed by washing with 1X PBS and centrifuged for an additional 3000xg for 3 minutes. Histone proteins were extracted from the pellet as described by25 to ensure good-quality identification and quantification of single histone marks. Briefly, cell pellets were dissolved in 100 µL of cold 0.2 M H2SO4 and incubated for 2 hours rotating in a cold room (4 °C). Aliquots were then centrifuged at 3400xg for 5 minutes […]
at 4 °C and the supernatant was added to a fresh tube. 100% cold TCA was then added to a final volume of 33% volume/volume TCA/supernatant and left to incubate for 1 hour in a cold room (4 °C). Samples were then centrifuged at 3400xg for 5 min at 4 °C and the supernatant was discarded. The precipitate was then washed with cold acetone/0.1% HCl and centrifuged at 3400xg for 5 minutes at 4 °C. The supernatant was discarded, and the precipitate was washed with cold acetone and centrifuged at 3400xg for 5 minutes at 4 °C. The supernatant was discarded, and the pellet was dried using a vacuum centrifuge.
The pellet was dissolved in 50 mM ammonium bicarbonate, pH 8.0, and histones were subjected to derivatization using 5 µL of propionic anhydride and 14 µL of ammonium hydroxide (all Sigma Aldrich) to balance the pH at 8.0. The mixture was incubated for 15 min and the procedure was repeated. Histones were then digested with 1 µg of sequencing grade trypsin (Promega) diluted in 50mM ammonium bicarbonate (1:20, enzyme:sample) overnight at room temperature.
Derivatization reaction was repeated to derivatize peptide N-termini. The samples were dried in a […]
Sample desalting: Prior to mass spectrometry analysis, samples were desalted using a 96-well plate filter (Orochem) packed with 1 mg of Oasis HLB C-18 resin (Waters). Briefly, the samples were resuspended in 100 µl of 0.1% TFA and loaded onto the HLB resin, which was previously equilibrated using 100 µl of the same buffer. After washing with 100 µl of 0.1% TFA, the samples were eluted with a buffer containing 70 µl of 60% acetonitrile and 0.1% TFA and then dried in a […]
LC-MS/MS Acquisition and Analysis: Samples were resuspended in 10 µl of 0.1% TFA and loaded onto a Dionex RSLC […] (Thermo Scientific), coupled online with an Orbitrap Fusion Lumos (Thermo Scientific). Chromatographic separation was performed with a two-column system, consisting of a C-18 trap cartridge (300 µm ID, 5 mm length) and a picofrit analytical column (75 µm ID, 25 cm length) packed in-house with reversed-phase Repro-Sil Pur C18-AQ 3 µm resin. Peptides were separated using a 30 min gradient from 1-30% buffer B (buffer A: 0.1% formic acid, buffer B: 80% acetonitrile + 0.1% formic acid) at a flow rate of 300 nl/min.
The mass spectrometer was set to acquire spectra in a data-independent acquisition (DIA) mode.

[1] = HEK293T cells, KDM4A F185A + 6A, replicates 6A_1 and 6A_2
[2] = peptide form, samples 6A_1, 6A_2

For `CCCCCCCCOC(=O)C(=O)NC(CC(C)C)C(=O)O` [6A, L-Leu octyl-ester NOG], the “Relative abundance H2A_82_88 unmod” value [1] was 100.0%, the “Relative abundance H2B_1_29 1B.PEPSKSAPAPKKGSKKAISKAQKKDGKKR” value [1] was 0.0% and the “Relative abundance HLQLAIR(H2A_82_88) (peptide total)” value [1] was 100.0%. The “Relative abundance unmod(H2A_1_88) (total)” value [1] was 100.0%, the “Relative abundance unmod(H2B_1_29) (total)” value [1] was 0.0% and the “Relative abundance, H2A1_1_11 K5ac” value [2] was 13.4% and 13.0%. The “Relative abundance, H2A1_1_11 unmod” value [2] was 62.1% and 84.8%, the “Relative abundance, H2A1_4_11 K5ac” value [2] was 3.2% and 5.1% and the “Relative abundance, H2A1_4_11 K9ac” value [2] was 0.9% and 1.2%. The “Relative abundance, H2A1_4_11 unmod” value [2] was 95.2% and 80.1%, the “Relative abundance, H2A1_36_42 K36ac” value [2] was 0.048% and 0.0169% and the “Relative abundance, H2A1_36_42 unmod” value [2] was 100.0%. The “Relative abundance, H2A3_36_42 unmod” value [2] was 99.7% and 100.0%, the “Relative abundance, H2AJ_4_11 K5acK9ac” value [2] was 89.8% and 67.1% and the “Relative abundance, H2AJ_4_11 K5me1” value [2] was 2.7% and 5.5%. The “Relative abundance, H2AJ_4_11 K9me1” value [2] was 3.1% and 5.2%, the “Relative abundance, H2AJ_4_11 unmod” value [2] was 3.7% and 11.0% and the “Relative abundance, H2AV_1_19 K4ac” value [2] was 0.347% and 0.0%. For the same compound, the “Relative abundance, H2AV_1_19 K4acK7ac” value [2] was 0.0%, the “Relative abundance, H2AV_1_19 K4acK7acK11acK15ac” value [2] was 4.7% and 1.7% and the “Relative abundance, H2AV_1_19 K4acK7acK15ac” value [2] was 0.0069% and 0.0%. For the same compound, the “Relative abundance, H2AV_1_19 K4acK11ac” value [2] was 0.0%, the “Relative abundance, H2AV_1_19 K4acK11acK15ac” value [2] was 0.0% and the “Relative abundance, H2AV_1_19 K4acK15ac” value [2] was 0.0%. The “Relative abundance, H2AV_1_19 K7ac” value [2] was 1.4% and 0.0%, the “Relative abundance, H2AV_1_19 K7acK11ac” value [2] was 0.0% and 0.0229% and the “Relative abundance, H2AV_1_19 K7acK15ac” value [2] was 0.0% and 0.0087%. For the same compound, the “Relative abundance, H2AV_1_19 K11ac” value [2] was 0.6% and 0.0%, the “Relative abundance, H2AV_1_19 K11acK15ac” value [2] was 0.0% and 0.237% and the “Relative abundance, H2AV_1_19 K15ac” value [2] was 1.7% and 0.0%. For the same compound, the “Relative abundance, H2AV_1_19 unmod” value [2] was 91.3% and 97.8%, the “Relative abundance, H2AX_4_11 K5me1” value [2] was 29.7% and 35.1% and the “Relative abundance, H2AX_36_42 unmod” value [2] was 100.0% and 99.1%. The “Relative abundance, H2AZ_1_19 K4acK7acK15ac” value [2] was 0.0004% and 0.0%, the “Relative abundance, H2AZ_1_19 K4acK11ac” value [2] was 0.45% and 0.0% and the “Relative abundance, H2AZ_1_19 K4acK11acK15ac” value [2] was 0.0%. For the same compound, the “Relative abundance, H2AZ_1_19 K7acK11ac” value [2] was 0.0%, the “Relative abundance, H2AZ_1_19 K7acK11acK15ac” value [2] was 0.0048% and 0.0% and the “Relative abundance, H2AZ_1_19 K15ac” value [2] was 0.5% and 0.8%. For the same compound, the “Relative abundance, H2AZ_1_19 unmod” value [2] was 84.5% and 95.5%, the “Relative abundance, H3_3_8 K4me1” value [2] was 10.4% and 9.4% and the “Relative abundance, H3_3_8 unmod” value [2] was 89.4% and 89.2%. The “Relative abundance, H3_9_17 K9ac” value [2] was 0.3%, the “Relative abundance, H3_9_17 K9acS10ph” value [2] was 0.0019% and 0.0% and the “Relative abundance, H3_9_17 K9acS10phK14ac” value [2] was 0.0004% and 0.0006%. For the same compound, the “Relative abundance, H3_9_17 K9me1K14ac” value [2] was 8.6% and 6.4%, the “Relative abundance, H33_27_40 K27me2” value [2] was 8.5% and 6.5% and the “Relative abundance, H33_27_40 K27me2K36me1” value [2] was 14.2% and 9.7%. For the same compound, the “Relative abundance, H33_27_40 K27me2K36me2” value [2] was 24.3% and 31.1%, the “Relative abundance, H33_27_40 K27me3” value [2] was 5.7% and 2.7% and the “Relative abundance, H33_27_40 K27me3K36me1” value [2] was 2.0% and 0.9%. For the same compound, the “Relative abundance, H33_27_40 K27me3K36me2” value [2] was 4.1% and 6.3% and the “Relative abundance, H33_27_40 K27me3S28ph” value [2] was 0.0%.
